Results: publication PMC11995519, “Structural insights into the human NuA4/TIP60 acetyltransferase and chromatin remodeling complex” (Science (New York, N.Y.), 2024)
These are yes or no findings as the source states them, for the method shown. For part of these data: In cells and extracts the contact can be indirect. Some results given as binding are weak or reduced against the parent protein; the word gives no strength. One block for each substance: values may come before it.

Chains of the proteins cited; added tags and fusions are not shown. Lines headed by an entry give the natural chain unless they say otherwise; changes in a name come on top. A line that says so, or that is headed by a name, gives the form on record, which may keep a tag or linker.
UniProt Q96L91: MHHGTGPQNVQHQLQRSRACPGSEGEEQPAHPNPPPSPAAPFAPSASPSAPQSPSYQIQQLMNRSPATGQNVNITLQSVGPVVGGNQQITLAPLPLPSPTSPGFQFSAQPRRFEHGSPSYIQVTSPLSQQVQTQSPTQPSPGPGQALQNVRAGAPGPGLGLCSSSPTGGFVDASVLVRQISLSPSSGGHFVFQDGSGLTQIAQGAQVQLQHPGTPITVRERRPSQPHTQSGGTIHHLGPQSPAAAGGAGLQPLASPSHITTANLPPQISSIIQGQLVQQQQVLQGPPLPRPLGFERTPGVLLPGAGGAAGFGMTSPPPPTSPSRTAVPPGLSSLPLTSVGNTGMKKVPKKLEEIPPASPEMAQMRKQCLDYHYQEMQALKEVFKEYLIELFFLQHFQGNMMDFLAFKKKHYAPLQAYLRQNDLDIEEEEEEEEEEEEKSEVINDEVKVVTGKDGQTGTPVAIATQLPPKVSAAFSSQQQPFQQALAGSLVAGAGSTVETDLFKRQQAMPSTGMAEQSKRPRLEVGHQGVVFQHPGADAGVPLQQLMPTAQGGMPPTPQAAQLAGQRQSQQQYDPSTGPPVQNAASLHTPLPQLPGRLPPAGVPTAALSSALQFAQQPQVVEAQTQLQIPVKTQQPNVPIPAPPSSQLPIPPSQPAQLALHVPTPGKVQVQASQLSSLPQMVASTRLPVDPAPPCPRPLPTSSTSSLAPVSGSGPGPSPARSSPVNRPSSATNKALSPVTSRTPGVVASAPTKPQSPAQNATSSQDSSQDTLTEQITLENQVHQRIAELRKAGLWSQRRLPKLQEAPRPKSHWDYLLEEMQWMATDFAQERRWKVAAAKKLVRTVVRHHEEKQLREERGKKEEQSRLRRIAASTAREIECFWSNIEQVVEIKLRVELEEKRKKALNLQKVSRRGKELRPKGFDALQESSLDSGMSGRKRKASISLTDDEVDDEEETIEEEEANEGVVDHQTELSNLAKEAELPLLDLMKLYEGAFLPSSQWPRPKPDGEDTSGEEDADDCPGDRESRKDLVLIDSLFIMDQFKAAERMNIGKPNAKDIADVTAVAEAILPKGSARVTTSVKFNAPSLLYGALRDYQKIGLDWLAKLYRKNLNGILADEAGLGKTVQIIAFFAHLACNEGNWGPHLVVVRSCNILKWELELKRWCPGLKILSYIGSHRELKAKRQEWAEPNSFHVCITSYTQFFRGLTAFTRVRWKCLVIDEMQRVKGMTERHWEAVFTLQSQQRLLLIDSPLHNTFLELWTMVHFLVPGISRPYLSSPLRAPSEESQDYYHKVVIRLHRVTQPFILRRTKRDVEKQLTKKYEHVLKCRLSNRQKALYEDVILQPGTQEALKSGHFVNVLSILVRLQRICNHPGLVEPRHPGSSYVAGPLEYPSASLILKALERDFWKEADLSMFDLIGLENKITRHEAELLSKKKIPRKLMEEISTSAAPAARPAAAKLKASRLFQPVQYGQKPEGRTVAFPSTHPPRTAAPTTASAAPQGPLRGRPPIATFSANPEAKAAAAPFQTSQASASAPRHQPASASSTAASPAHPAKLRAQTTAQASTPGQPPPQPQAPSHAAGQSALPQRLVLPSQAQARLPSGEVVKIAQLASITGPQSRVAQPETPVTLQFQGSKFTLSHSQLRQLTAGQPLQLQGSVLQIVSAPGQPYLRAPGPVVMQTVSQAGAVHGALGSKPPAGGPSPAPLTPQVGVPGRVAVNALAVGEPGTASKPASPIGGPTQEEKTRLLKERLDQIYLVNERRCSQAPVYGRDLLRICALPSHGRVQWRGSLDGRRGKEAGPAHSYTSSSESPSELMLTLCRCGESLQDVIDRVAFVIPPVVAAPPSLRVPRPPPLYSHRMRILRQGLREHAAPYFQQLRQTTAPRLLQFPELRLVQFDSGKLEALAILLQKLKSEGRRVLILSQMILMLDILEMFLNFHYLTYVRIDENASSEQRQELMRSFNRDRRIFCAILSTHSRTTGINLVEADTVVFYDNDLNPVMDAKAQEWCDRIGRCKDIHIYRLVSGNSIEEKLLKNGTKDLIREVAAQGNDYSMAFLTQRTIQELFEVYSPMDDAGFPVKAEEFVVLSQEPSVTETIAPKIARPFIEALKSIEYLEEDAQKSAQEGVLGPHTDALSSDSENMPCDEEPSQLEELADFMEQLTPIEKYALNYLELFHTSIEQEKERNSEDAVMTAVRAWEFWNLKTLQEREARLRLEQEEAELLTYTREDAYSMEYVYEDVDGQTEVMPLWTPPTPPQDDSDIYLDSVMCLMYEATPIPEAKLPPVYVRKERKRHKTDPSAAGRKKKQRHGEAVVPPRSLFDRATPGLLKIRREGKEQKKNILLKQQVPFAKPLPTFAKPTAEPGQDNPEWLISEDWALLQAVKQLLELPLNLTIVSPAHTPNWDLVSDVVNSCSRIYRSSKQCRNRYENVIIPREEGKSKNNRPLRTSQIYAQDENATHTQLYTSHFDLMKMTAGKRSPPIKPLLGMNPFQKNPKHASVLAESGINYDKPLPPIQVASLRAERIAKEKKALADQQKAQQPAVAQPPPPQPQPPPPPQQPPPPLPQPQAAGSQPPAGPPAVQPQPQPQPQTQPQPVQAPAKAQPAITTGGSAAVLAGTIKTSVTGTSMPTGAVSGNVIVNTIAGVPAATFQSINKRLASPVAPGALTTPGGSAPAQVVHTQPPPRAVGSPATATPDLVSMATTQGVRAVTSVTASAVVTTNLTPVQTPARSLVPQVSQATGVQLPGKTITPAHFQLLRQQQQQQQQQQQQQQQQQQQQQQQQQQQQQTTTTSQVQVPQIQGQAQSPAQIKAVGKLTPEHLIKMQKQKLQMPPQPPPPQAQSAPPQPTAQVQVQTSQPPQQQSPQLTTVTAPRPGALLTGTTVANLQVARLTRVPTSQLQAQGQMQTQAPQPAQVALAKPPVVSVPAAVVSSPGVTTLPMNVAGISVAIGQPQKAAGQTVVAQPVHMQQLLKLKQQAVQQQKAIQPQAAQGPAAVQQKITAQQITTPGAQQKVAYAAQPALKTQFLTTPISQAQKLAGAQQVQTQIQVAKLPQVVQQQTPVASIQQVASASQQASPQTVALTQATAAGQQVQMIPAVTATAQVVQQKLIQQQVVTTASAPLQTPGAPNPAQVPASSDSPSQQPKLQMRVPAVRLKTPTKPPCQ
UniProt Q9NPF5: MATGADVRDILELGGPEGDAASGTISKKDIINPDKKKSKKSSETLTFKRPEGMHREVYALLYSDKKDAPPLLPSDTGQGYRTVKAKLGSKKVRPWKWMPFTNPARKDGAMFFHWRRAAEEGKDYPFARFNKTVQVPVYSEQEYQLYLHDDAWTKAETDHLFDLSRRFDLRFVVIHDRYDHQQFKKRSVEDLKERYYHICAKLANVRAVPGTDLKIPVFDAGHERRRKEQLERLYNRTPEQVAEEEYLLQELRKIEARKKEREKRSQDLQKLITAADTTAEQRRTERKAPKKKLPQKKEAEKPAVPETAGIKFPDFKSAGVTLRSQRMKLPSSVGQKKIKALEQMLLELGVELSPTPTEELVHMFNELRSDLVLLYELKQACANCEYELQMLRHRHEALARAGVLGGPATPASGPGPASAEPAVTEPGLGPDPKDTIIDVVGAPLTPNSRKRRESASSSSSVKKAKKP
DMAP1 with alanine substitutions at L160, F161 and D162 (Q9NPF5, form named): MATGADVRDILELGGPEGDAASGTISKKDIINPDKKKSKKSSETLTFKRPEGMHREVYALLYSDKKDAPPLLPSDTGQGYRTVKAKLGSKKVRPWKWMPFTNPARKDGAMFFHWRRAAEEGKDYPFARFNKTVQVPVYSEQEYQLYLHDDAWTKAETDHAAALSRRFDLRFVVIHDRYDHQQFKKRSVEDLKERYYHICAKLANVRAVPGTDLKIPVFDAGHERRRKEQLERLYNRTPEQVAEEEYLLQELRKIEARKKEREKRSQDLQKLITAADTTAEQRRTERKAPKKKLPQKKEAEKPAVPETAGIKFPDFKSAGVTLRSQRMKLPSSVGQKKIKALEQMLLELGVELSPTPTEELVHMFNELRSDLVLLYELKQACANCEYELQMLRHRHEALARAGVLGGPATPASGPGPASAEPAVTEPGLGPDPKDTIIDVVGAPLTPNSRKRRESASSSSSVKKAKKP
DMAP1 with alanine substitutions at L169, R170 and F171 (Q9NPF5, form named): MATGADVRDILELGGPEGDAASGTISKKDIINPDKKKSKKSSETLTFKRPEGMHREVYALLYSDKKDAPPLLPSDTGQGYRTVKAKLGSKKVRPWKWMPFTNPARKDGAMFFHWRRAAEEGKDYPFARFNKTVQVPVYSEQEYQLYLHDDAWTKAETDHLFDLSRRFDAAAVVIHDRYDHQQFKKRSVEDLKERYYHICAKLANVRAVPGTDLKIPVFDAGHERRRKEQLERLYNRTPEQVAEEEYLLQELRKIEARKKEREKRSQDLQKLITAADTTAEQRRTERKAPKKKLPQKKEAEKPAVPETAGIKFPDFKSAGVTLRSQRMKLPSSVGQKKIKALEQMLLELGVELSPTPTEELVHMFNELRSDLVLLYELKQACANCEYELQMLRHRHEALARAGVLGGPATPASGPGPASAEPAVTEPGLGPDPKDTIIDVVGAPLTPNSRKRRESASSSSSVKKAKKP
DMAP1–3xFlag-2xStrep lacking the SANT domain (amino acids 149 to 199; ΔSANT) (Q9NPF5, form named): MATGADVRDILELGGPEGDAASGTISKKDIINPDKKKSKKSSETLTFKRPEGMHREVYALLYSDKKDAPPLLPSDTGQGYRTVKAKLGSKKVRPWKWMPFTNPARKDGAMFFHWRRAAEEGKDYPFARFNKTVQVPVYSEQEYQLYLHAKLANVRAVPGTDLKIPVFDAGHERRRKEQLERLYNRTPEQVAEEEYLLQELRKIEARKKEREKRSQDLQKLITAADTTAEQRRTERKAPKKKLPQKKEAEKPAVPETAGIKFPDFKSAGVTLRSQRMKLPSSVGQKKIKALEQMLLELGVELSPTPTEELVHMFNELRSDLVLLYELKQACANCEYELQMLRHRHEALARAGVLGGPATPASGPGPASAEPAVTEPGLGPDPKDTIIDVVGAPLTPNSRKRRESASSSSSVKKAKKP
UniProt O96019: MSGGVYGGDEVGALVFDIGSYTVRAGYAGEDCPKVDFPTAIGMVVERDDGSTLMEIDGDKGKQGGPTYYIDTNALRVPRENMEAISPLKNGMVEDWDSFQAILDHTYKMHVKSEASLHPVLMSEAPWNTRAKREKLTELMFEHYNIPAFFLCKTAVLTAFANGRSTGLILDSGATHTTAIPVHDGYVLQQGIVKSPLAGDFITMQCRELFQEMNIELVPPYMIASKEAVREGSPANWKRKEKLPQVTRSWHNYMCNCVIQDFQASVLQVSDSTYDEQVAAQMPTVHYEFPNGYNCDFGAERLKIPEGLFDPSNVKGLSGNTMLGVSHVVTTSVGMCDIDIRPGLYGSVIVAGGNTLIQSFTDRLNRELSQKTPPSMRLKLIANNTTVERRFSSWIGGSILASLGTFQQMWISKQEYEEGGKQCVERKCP

Legend:
[1] = target: EP400 of the reconstituted P400 subcomplex (human) (UniProt Q96L91); assay: cryo-EM structure; reconstituted P400 subcomplex co-expressed in Expi293 and purified, glutaraldehyde cross-linked 1 min; 2.6 Å; both purified
[2] = target: DMAP1 with alanine substitutions at L160, F161 and D162 (human) (UniProt Q9NPF5); assay: co-IP; tandem affinity purification of DMAP1–3xFlag-2xStrep (WT and mutants), immunoblotting, compared with a mock cell line
[3] = target: DMAP1–3xFlag-2xStrep mutant of amino acid 190 (D190A/L191A/K192A) (human) (UniProt Q9NPF5); assay: as above
[4] = target: DMAP1 with alanine substitutions at L169, R170 and F171 (human) (UniProt Q9NPF5); assay: as above
[5] = target: WT DMAP1–3xFlag-2xStrep (human) (UniProt Q9NPF5); assay: as above
[6] = target: DMAP1–3xFlag-2xStrep lacking the SANT domain (amino acids 149 to 199; ΔSANT) (human) (UniProt Q9NPF5); assay: as above
[7] = target: WT EP400–3xFlag-2xStrep (human) (UniProt Q96L91); assay: co-IP; extracts of cells expressing EP400–3xFlag-2xStrep (WT or Δ2361-2530), anti-Flag immunoprecipitation, Flag peptide elution, immunoblotting
[8] = target: EP400–3xFlag-2xStrep lacking the SANT and HD domains (amino acids 2361 to 2530) (human) (UniProt Q96L91); assay: as above

binding [1]: binds
Substance: BAF53a of the reconstituted P400 subcomplex (from UniProt O96019 1-429)

binding [1]: binds
Substance: DMAP1 of the reconstituted P400 subcomplex (from UniProt Q9NPF5 1-467)

binding [2]: binds | binding [3]: binds | binding [4]: no binding | binding [5]: binds | binding [6]: no binding
Substance: E1A binding protein P400 (EP400) (from UniProt Q96L91 1-3159)

binding [7]: binds | binding [8]: no binding
Substance: transformation/transcription domain-associated protein (TRRAP) (from UniProt Q9Y4A5 1-3859)
